PubChem BioAssay (NCI)
Several values for one entry are separate records, joined by “and”; a condition that tells them apart may be missing. Equal entries are not always repeated.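 Method: 48-hour compound exposure of cells in 96-well plates, five concentrations, linear interpolation of endpoints. Here, GI50 denotes the concentration required for 50% inhibition of growth. The concentration for full growth arrest is given as TGI.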 Peptide text beside a SMILES is read from it.

test system: NCI-H322M lung; assay: growth of human tumour cells (NCI), 48 h

| SMILES | TGI | GI50 |
| --- | --- | --- |
| Clc1ccc(-c2nn3c(CCCCCCCCc4nnc5sc(-c6ccc(Cl)cc6)nn45)nnc3s2)cc1 | > 84.7 µM | – |
| CN1CCCN2CCN(C)CCN(CC1)CC2 | > 100 µM | – |
| Cn1c(C(N)=O)cc2c1-c1nc(Nc3ccccc3)ncc1CCC2 | 48.6 µM | 4.51 µM |
| c1ccc2c(c1)ccc1nc(-c3ccc4c(c3)OCO4)c3c(c12)CCCC3 | > 100 µM | – |
| S=c1ssc2c3ssc(=S)c3n(Cc3ccccc3)c12 | > 100 µM | – |
| CN(C)CCNC(=O)c1ccc(Nc2nc3ccccc3c3occc23)cc1 | 7.85 µM | 2.66 µM |
| C/C(=N\N=C(N)N)C(CN(CC(C)C)CC(C)C)C(=O)Nc1ccc(C)cc1C (stereo not drawn) | > 100 µM | – |
| COC(=O)c1ccccc1C1CN=NC12Cc1ccc3ccccc3c1C2=O (stereo not drawn) | > 100 µM | – |
| NC(N)=NCCCC(N=c1c2ccccc2n(O)c2ccccc12)C(=O)O (stereo not drawn) | > 100 µM | – |
| CC(C(=O)N1C(=O)N(C(=O)C(C)C(O)c2ccccc2)C(c2ccccc2)C1c1ccccc1)C(O)c1ccccc1 (stereo not drawn) | 81.4 µM | – |
| CCOC(=O)CN1CCNCCN(CC(=O)OCC)CCNCC1 | > 100 µM | – |
| O=P(c1ccccc1)(c1ccccc1)C1CC=C(c2ccccc2)C2(CCCC2)C1 (stereo not drawn) | > 100 µM | – |
| OCCN(CCO)N=Nc1ccc(-c2nc3ccccc3[nH]2)cc1 | > 100 µM | 39.2 µM |
| Cc1ccc(NC(c2ccccc2)c2ccc3cccnc3c2O)cc1 (stereo not drawn) | 29.9 µM | – |
| O=C(Nc1ccc(-c2nc3cc4ccccc4cc3[nH]2)cc1)c1cccc(Br)c1 | > 100 µM | 32.2 µM |
| CC1=C(/C=C/C(C)=C/C=C/C(C)=C/C(=O)OCC2OC(n3cc(F)c(=O)[nH]c3=O)CC2OC(=O)/C=C(C)/C=C/C=C(C)/C=C/C2=C(C)CCCC2(C)C)C(C)(C)CCC1 (stereo not drawn) | > 100 µM | – |
| C=C[C@@H]1OC(=O)O[C@H]1CO | > 100 µM | – |
| CCOC(=O)CC(=O)NC1CC2CCC1(C)C2(C)C (stereo not drawn) | > 100 µM | – |
| CS(=O)(=O)c1ccc(Oc2cc(F)cc(C#N)c2)c2c1[C@H](O)[C@H](F)[C@@H]2F | > 100 µM | > 100 µM |
| O=C1C=CC(=O)c2c1ccc1c3ccccc3n(-c3ccccn3)c21 | > 100 µM | – |
| CC/C=C\C[C@H](O)C/C=C1/C(=O)C=C[C@@H]1C/C=C\CCCC(=O)NC(C)C | 12.2 µM | 2.81 µM |
| C[Si](C)(C)C#CCO[Si](C)(C)C | > 100 µM | – |
| Cc1cc2c(cc1C)NC(=O)C(NC(=O)/C=C/c1ccccc1)C=N2 (stereo not drawn) | > 100 µM | – |
| CNc1ncnc(Sc2nc(N)nc3nc[nH]c23)c1[N+](=O)[O-] | > 100 µM | – |
| CC(=O)/C(C=Nc1c(C)n(C)n(-c2ccccc2)c1=O)=C(/C)O | > 100 µM | – |

| SMILES | TGI | GI50 |
| --- | --- | --- |
| CC1NC(=O)CNC(=O)CNC(=O)C(Cc2ccc(O)cc2)NC(=O)C(C(C)C)NC(=O)C(C)NC1=O (stereo not drawn) (cyclo(GGAAVY); configuration not given here) | > 100 µM | – |
| CC(C)C[C@@H](NC(=O)[C@@H](Cc1ccccc1)NC(=O)c1cnccn1)B1O[C@H]2[C@H](O)[C@@H](C(=O)NCCCC[C@@H]3NC(=O)[C@@H](Cc4ccccc4)NC(=O)[C@H](CC(=O)O)NC(=O)CNC(=O)[C@H](CCCN=C(N)N)NC3=O)O[C@@H](CN)[C@H]2O1 | 0.972 µM | 0.0522 µM and 0.0379 µM |
| COC(=O)/C=C/c1cc(O)c2c(c1)C(C(=O)OC)C(c1ccc(O)c(O)c1)O2 (stereo not drawn) | 34.4 µM and 32.3 µM | 6.57 µM and 5.76 µM |
| CCC1=C(C)/C(=C/c2[nH]c(C)c(C(=O)CCCCC(=O)OC)c2C)N=C1c1ccc[nH]1 | > 100 µM | 56.5 µM |
| S=c1[nH]nc(COc2ccc3c(c2)CCCC3)n1/N=C/c1ccc(Cl)cc1 | 37.3 µM | – |
| Oc1cccc2c1NC1=C(CCC/C1=C\c1ccccc1)C2 | > 100 µM | – |
| Cc1cc2nc3n[nH]c(N)c3nc2cc1C | > 100 µM | – |
| O=C1/C(=C/c2cccc([N+](=O)[O-])c2)COc2ccc(O)c(O)c21 | 2.99 µM | 1.56 µM |
| O=C(Cc1nc2ccccc2s1)C(=O)Nc1ccc(Cl)cc1 | > 100 µM | – |
| Cc1ccc(C)c(NC(=O)C(=O)C2C(=O)C3=C(CC2(C)C)Nc2ccccc2S3)c1 (stereo not drawn) | > 100 µM | – |
| O=S(=O)([O-])[O-].[OH3+].[OH3+].[OH3+].[Ru+2].c1ccccc1 | > 100 µM | > 100 µM |
| CCOC(=O)C1(C(=O)OCC)C[C@]23OCCC(=O)[C@H]2[C@H]2C(=O)OC(C)(C)O[C@]23C1 | > 100 µM | – |
| CC(=O)N(C)OC(=O)CC(=O)c1ccccc1 | > 100 µM | – |
| Cn1cc(C(=O)c2nccc3c2cnc2ccccc23)ccc1=O | > 100 µM | – |
| Cc1ccc(S(=O)ON2CCC(C(=O)O)(c3ccccc3)CC2)cc1 (stereo not drawn) | > 100 µM | – |
| CCc1ccc(-c2nnc(COc3ccc(-c4nc5ccc(C)cc5[nH]4)cc3OC)o2)cc1 | > 100 µM | 3.8 µM |
| CC(Cn1c2c3ccccc3ccc2c2oc(=O)c3ccccc3c21)N(C)C (stereo not drawn) | > 100 µM | – |
| CSC1=N/C(=C\c2ccc(C)cc2)C(=O)N1CN1CCOCC1 | > 100 µM | – |
| CCOC(=O)C1C(=O)CC(O)(OCC)C(C(=O)OCC)C1c1ccc(OC)cc1 (stereo not drawn) | > 100 µM | – |
| O=C(O)c1ccc(NC(=O)C2C(=O)C(=O)N(c3ccc(C(=O)O)cc3)C2=O)cc1 (stereo not drawn) | > 100 µM | – |
| NC(=O)NC(=O)c1cnccn1 | > 100 µM | – |
| C=C(O)c1ccccc1C#Cc1ccccc1C(=O)OC | > 10 µM | – |
| CCCN1C(=O)C/C(=C\C(C)=O)Nc2ccccc21 | > 100 µM | – |
| CCn1c(=O)c(-c2ccn[nH]2)cc2c(C)nc(N)nc21 | 14.6 µM | 1.38 µM |
| CCCCCCCCCCCCCS(=O)(=O)O | > 100 µM | – |
